The list shows a part of the results. At the low end of the ranking, values are background and their order means little.

The target in the assay is T1, ELK1 (UniProt P19419).
T1 sequence: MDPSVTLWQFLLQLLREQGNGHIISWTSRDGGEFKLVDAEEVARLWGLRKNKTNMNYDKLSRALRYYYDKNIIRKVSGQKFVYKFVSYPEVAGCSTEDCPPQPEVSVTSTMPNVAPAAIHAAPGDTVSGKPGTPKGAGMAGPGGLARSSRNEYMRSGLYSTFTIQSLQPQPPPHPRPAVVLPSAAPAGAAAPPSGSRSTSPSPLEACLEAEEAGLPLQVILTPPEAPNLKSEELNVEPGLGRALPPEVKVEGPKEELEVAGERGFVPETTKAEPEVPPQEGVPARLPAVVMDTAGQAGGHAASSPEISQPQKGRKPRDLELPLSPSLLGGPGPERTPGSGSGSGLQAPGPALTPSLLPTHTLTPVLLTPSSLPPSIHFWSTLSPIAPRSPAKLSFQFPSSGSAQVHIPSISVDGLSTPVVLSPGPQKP
As to the kind of experiment: custom PBM. Conditions: custom protein-binding microarray; buffer, salt, pH and temperature not stated; high values mean tight binding; double strand, one strand shown.
Take “GGAAAAAGGCCCAGGGTAACACCGGAAGTGGGCTTAGTCTTGATTCGCTTGACGCTGCTG”: the binding signal (log fluorescence intensity) was determined as 11.
The value for “TGTCGGGTAAGGGAATGTAGATCATGTGAATGAAAAGTCTTGATTCGCTTGACGCTGCTG” was 8.94; that for “GTGTATAGGATCCCCTCCAACACACGTGTTAAAATGGTCTTGATTCGCTTGACGCTGCTG” was 8.91; that for “GATTAATTTCTGCCCTTATTTGCACGTGCCATAACAGTCTTGATTCGCTTGACGCTGCTG” was 8.84.
In the case of “TACTGACTTATATTTGCGAATGCACATGAATAGACCGTCTTGATTCGCTTGACGCTGCTG”, the binding signal (log fluorescence intensity) came out at 8.81.
The value for “GCTGCTGCGGTGCATACGCCACCGGATGTGACCCCGGTCTTGATTCGCTTGACGCTGCTG” was 10.4; that for “GTGTATAGGATCCCATGCAACACACGTGTTAAAATGGTCTTGATTCGCTTGACGCTGCTG” was 8.85.
The figure for “TACCGACTTATATATGCGAATGCACATGAATAGACCGTCTTGATTCGCTTGACGCTGCTG” is 8.82; for “GATTAATTTCTGACCTTATTCGCACGTGCCATAACAGTCTTGATTCGCTTGACGCTGCTG” it is 8.96; for “TGTCGGGTAAGGGAATGAAGATCACGTGAATGAAAAGTCTTGATTCGCTTGACGCTGCTG” it is 8.86.
The figure for “TCCGGCTACCAGCTCCACCCACTTGAGGCCTTGTAGGTCTTGATTCGCTTGACGCTGCTG” is 8.87; for “TGTCGGGTAAGGGAATGTAGATCACGTGAATGAAATGTCTTGATTCGCTTGACGCTGCTG” it is 8.86.
Take “GCTGCTGCGGTGCATACCCCACCTGATGTGACCCCGGTCTTGATTCGCTTGACGCTGCTG”: the binding signal (log fluorescence intensity) was 8.92.
The figure for “TAAAGGGAAGACTGTTGTGGTAGTTCCGGGTATTAAGTCTTGATTCGCTTGACGCTGCTG” is 11.
The figure for “TACTGACTTATATATGCGAATGCCCATGAATAGACCGTCTTGATTCGCTTGACGCTGCTG” is 8.84; for “CTGGGACTTGACCCAACTCCGCCACGTGGGTCGTTTGTCTTGATTCGCTTGACGCTGCTG” it is 9.02.
The value for “GCTGCTGCGGTGCATACCCCACCGCATGTGACCCCGGTCTTGATTCGCTTGACGCTGCTG” was 8.99.
For “CTGGGACTGGACCCAACTCTGCCACGTGGGTCGTTTGTCTTGATTCGCTTGACGCTGCTG”, the binding signal (log fluorescence intensity) was 8.71.
The figure for “GATTAATTTCTGCCCTTATTCGCACGTGCCATAAAAGTCTTGATTCGCTTGACGCTGCTG” is 8.8; for “TACTGAATTATATATGCGAATGCACATGAATAGACCGTCTTGATTCGCTTGACGCTGCTG” it is 8.87; for “CTGGGACTTGACCCAACTCTGCCACGTGGTTCGTTTGTCTTGATTCGCTTGACGCTGCTG” it is 8.8.
The figure for “CTGGGACTTGACCCAACTTTGCCACGTGGGTCGTTTGTCTTGATTCGCTTGACGCTGCTG” is 8.98; for “TAAAGGGAAGACGGTTTTGGTAGTTCCGGGTATTAAGTCTTGATTCGCTTGACGCTGCTG” it is 11.4; for “CAGCATAGGACTTCTTCCCTTAAGCAATTGATAACCGTCTTGATTCGCTTGACGCTGCTG” it is 8.9.
The figure for “CACAATTTTTACAGTAATGTAGCACGCATAACTCCTGTCTTGATTCGCTTGACGCTGCTG” is 8.9; for “CAGCATAGGACTTCTGCCCTGAAGCAATTGATAACCGTCTTGATTCGCTTGACGCTGCTG” it is 8.86.
For “GCTGCTGCGGTGCATACCCCACCAGATGTGACCCCGGTCTTGATTCGCTTGACGCTGCTG”, the binding signal (log fluorescence intensity) was 8.86.
The value for “TGTCGGGGAAGGGAATGTAGATCACGTGAATGAAAAGTCTTGATTCGCTTGACGCTGCTG” was 8.86; that for “CACTATTTTTACAGTAATGTAGCACGCGTAACTCCTGTCTTGATTCGCTTGACGCTGCTG” was 8.94.
Turning to “CTGGGACTTGACCCAAATCTGCCACGTGGGTCGTTTGTCTTGATTCGCTTGACGCTGCTG”, the binding signal (log fluorescence intensity) amounted to 9.
The figure for “CAGCATAGGACTTCTTCCCTGAAGCAATTGATAATCGTCTTGATTCGCTTGACGCTGCTG” is 8.79; for “CAGCATAGGACTTCTTCCCTGAAGCAATTGATTACCGTCTTGATTCGCTTGACGCTGCTG” it is 8.83.
The figure for “CTGGGCCTTGACCCAACTCTGCCACGTGGGTCGTTTGTCTTGATTCGCTTGACGCTGCTG” is 8.82; for “GATTATTTTCTGCCCTTATTCGCACGTGCCATAACAGTCTTGATTCGCTTGACGCTGCTG” it is 8.81; for “CGGAAGTGTCGTAAACGTCGGATATCCGGTTCTTTTGTCTTGATTCGCTTGACGCTGCTG” it is 12.5.
In the case of “TGTCGGGTAAGGGAATTTAGATCACGTGAATGAAAAGTCTTGATTCGCTTGACGCTGCTG”, the binding signal (log fluorescence intensity) amounted to 8.87.
As to “TGTCGGGTCAGGGAATGTAGATCACGTGAATGAAAAGTCTTGATTCGCTTGACGCTGCTG”, the binding signal (log fluorescence intensity) came out at 8.78.
The value for “CAGAAGTGTCGTAAACGTCGGATATCCGGTTCTTCTGTCTTGATTCGCTTGACGCTGCTG” was 12.6.
The value for “GCTGCTGCGGTGCATACCCCACAGGATGTGACCCCGGTCTTGATTCGCTTGACGCTGCTG” was 9.08; that for “GGAAAAAGGCCCAGGCTAACACCGGAAGTGGGCTTAGTCTTGATTCGCTTGACGCTGCTG” was 11.1.
The value for “GGAAAACGGCCCAGGGTAACACCGGAAGTGGGCTTAGTCTTGATTCGCTTGACGCTGCTG” was 10.9.
As for “TACTGACTTATATATGCGAATGCACATGAATATACCGTCTTGATTCGCTTGACGCTGCTG”, the binding signal (log fluorescence intensity) came out at 8.84.
The figure for “GATCAATTTCTGCCCTTATTCGCACGTGCCATAACAGTCTTGATTCGCTTGACGCTGCTG” is 8.78.
Regarding “CTTGGACTTGACCCAACTCTGCCACGTGGGTCGTTTGTCTTGATTCGCTTGACGCTGCTG”, the binding signal (log fluorescence intensity) came to 8.74.
The figure for “CGGAAGTGTCGTAAACGTCTGATATCCGGTTCTTCTGTCTTGATTCGCTTGACGCTGCTG” is 11.1; for “TACTGACTTATATATGCGCATGCACATGAATAGACCGTCTTGATTCGCTTGACGCTGCTG” it is 8.78.
The figure for “CAGCATAGGACTTCTTCCCTGAAGCGATTGATAACCGTCTTGATTCGCTTGACGCTGCTG” is 8.89.
As for “GATTAATTTCTGCCCTTATTCGCACGTGCCATATCAGTCTTGATTCGCTTGACGCTGCTG”, the binding signal (log fluorescence intensity) amounted to 8.98.
The figure for “TAAAGGGAAGACGGTTGTGGTAATTCCGGGTATTAAGTCTTGATTCGCTTGACGCTGCTG” is 10.1; for “GCTGCTGCGGTGCGTACCCCACCGGATGTGACCCCGGTCTTGATTCGCTTGACGCTGCTG” it is 10.3.
The figure for “GTGTATAGGATCCCATCCAACACAAGTGTTAAAATGGTCTTGATTCGCTTGACGCTGCTG” is 8.78.
The figure for “CTGGGACTTGACCCAACGCTGCCACGTGGGTCGTTTGTCTTGATTCGCTTGACGCTGCTG” is 8.83.
As to “CTGGGACTTGACCCAACTCTGCCACGTGGGTCTTTTGTCTTGATTCGCTTGACGCTGCTG”, the binding signal (log fluorescence intensity) is 8.84.
The figure for “TCCGGCTACCAGCTCCACCCAGTTCAGGCCTTGTAGGTCTTGATTCGCTTGACGCTGCTG” is 8.98; for “GTGTATAGGATCCCATCCAACACACGTGTTAGAATGGTCTTGATTCGCTTGACGCTGCTG” it is 8.79.
The value for “CTGGGACTTGACCCAACTCTGCTACGTGGGTCGTTTGTCTTGATTCGCTTGACGCTGCTG” was 8.94; that for “GTGTATAGGATCCCATCCAACACTCGTGTTAAAATGGTCTTGATTCGCTTGACGCTGCTG” was 8.95.
The value for “CCGCATAGGACTTCTTCCCTGAAGCAATTGATAACCGTCTTGATTCGCTTGACGCTGCTG” was 8.86.
For the sequence “GGAAAAAGGCCCAGGGTAACACCGGAAGTGCGCTTAGTCTTGATTCGCTTGACGCTGCTG”, the binding signal (log fluorescence intensity) was found to be 11.
With “TAAAGGGAAGACGGTTGTGGTAGTTCGGGGTATTAAGTCTTGATTCGCTTGACGCTGCTG”, the binding signal (log fluorescence intensity) came to 8.99.
As for “TACTGACTTATATATACGAATGCACATGAATAGACCGTCTTGATTCGCTTGACGCTGCTG”, the binding signal (log fluorescence intensity) amounted to 8.81.
The figure for “CTGGGACTTGACCCAACTCTGCCAGGTGGGTCGTTTGTCTTGATTCGCTTGACGCTGCTG” is 8.97.
On to “TACTGACTTACATATGCGAATGCACATGAATAGACCGTCTTGATTCGCTTGACGCTGCTG”, for which the binding signal (log fluorescence intensity) was 8.87.
For the sequence “GTGTATAGGATCCCATCCAACACACGTGATAAAATGGTCTTGATTCGCTTGACGCTGCTG”, the binding signal (log fluorescence intensity) is 8.94.
The figure for “GTGTATTGGATCCCATCCAACACACGTGTTAAAATGGTCTTGATTCGCTTGACGCTGCTG” is 8.76; for “GGAAAAAGGCCCAGGGTAACATCGGAAGTGGGCTTAGTCTTGATTCGCTTGACGCTGCTG” it is 9.73.
The figure for “GATTAATTTCTCCCCTTATTCGCACGTGCCATAACAGTCTTGATTCGCTTGACGCTGCTG” is 8.8; for “GTGTATAGGATCGCATCCAACACACGTGTTAAAATGGTCTTGATTCGCTTGACGCTGCTG” it is 8.7.
The value for “GGAAAGAGGCCCAGGGTAACACCGGAAGTGGGCTTAGTCTTGATTCGCTTGACGCTGCTG” was 10.8; that for “CACAATTCTTACAGTAATGTAGCACGCGTAACTCCTGTCTTGATTCGCTTGACGCTGCTG” was 8.9; that for “CTGGGACTTGACCCAACTCTGCGACGTGGGTCGTTTGTCTTGATTCGCTTGACGCTGCTG” was 8.85.
As to “TAACGGGAAGACGGTTGTGGTAGTTCCGGGTATTAAGTCTTGATTCGCTTGACGCTGCTG”, the binding signal (log fluorescence intensity) amounted to 11.2.
The value for “GGAAAAAGCCCCAGGGTAACACCGGAAGTGGGCTTAGTCTTGATTCGCTTGACGCTGCTG” was 10.8; that for “CACAATTTTTACAGTAACGTAGCACGCGTAACTCCTGTCTTGATTCGCTTGACGCTGCTG” was 8.84; that for “TCCGGCTACCAGCCCCACCCACTTCAGGCCTTGTAGGTCTTGATTCGCTTGACGCTGCTG” was 8.94.
The figure for “CAGCATCGGACTTCTTCCCTGAAGCAATTGATAACCGTCTTGATTCGCTTGACGCTGCTG” is 8.84; for “GATTAATTTTTGCCCTTATTCGCACGTGCCATAACAGTCTTGATTCGCTTGACGCTGCTG” it is 8.94.
The figure for “TGTCGGGTAAGGGAATGTAGCTCACGTGAATGAAAAGTCTTGATTCGCTTGACGCTGCTG” is 8.76; for “GTGTATAGGATCCCATCCAACACACGTCTTAAAATGGTCTTGATTCGCTTGACGCTGCTG” it is 8.8.
As for “GTGTATAGGATTCCATCCAACACACGTGTTAAAATGGTCTTGATTCGCTTGACGCTGCTG”, the binding signal (log fluorescence intensity) worked out at 8.95.
Turning to “CAGCATAGGACTTCTTCCCTGGAGCAATTGATAACCGTCTTGATTCGCTTGACGCTGCTG”, the binding signal (log fluorescence intensity) was 8.85.

The values above are taken from article PMC6602471.
